{"source": "paper PMC9911399", "about": "“Two distinct binding modes provide the RNA-binding protein RbFox with extraordinary sequence specificity”", "binders": {"B1": {"name": "UCUAGAC (DNA:RNA)", "RNA": "GGGAGACCGGAAUUCAGAUUGUCCUCUAGACUUAAAUCCCGUCGUAGCCACCA", "DNA 1": "CAATCTGAATTCCGGTCTCCC", "DNA 2": "TGGTGGCTACGACGGGATT"}, "B2": {"name": "UCGCGAG (DNA:RNA)", "RNA": "B1 RNA with U27G, A28C, C31G", "DNA 1": "CAATCTGAATTCCGGTCTCCC", "DNA 2": "TGGTGGCTACGACGGGATT"}, "B3": {"name": "CUAACCA (DNA:RNA)", "RNA": "B1 RNA with U25C, C26U, U27A, G29C, A30C, C31A", "DNA 1": "CAATCTGAATTCCGGTCTCCC", "DNA 2": "TGGTGGCTACGACGGGATT"}, "B4": {"name": "GUCCGUG (DNA:RNA)", "RNA": "B1 RNA with U25G, C26U, U27C, A28C, A30U, C31G", "DNA 1": "CAATCTGAATTCCGGTCTCCC", "DNA 2": "TGGTGGCTACGACGGGATT"}, "B5": {"name": "UGAUUGA (DNA:RNA)", "RNA": "B1 RNA with C26G, U27A, A28U, G29U, A30G, C31A", "DNA 1": "CAATCTGAATTCCGGTCTCCC", "DNA 2": "TGGTGGCTACGACGGGATT"}, "B6": {"name": "CAGCUAG (DNA:RNA)", "RNA": "B1 RNA with U25C, C26A, U27G, A28C, G29U, C31G", "DNA 1": "CAATCTGAATTCCGGTCTCCC", "DNA 2": "TGGTGGCTACGACGGGATT"}, "B7": {"name": "GACUAUA (DNA:RNA)", "RNA": "GGGAGACCGGAAUUCAGAUUGUCCGACUAUAUUAAAUCCCGUCGUAGCCACCA", "DNA 1": "CAATCTGAATTCCGGTCTCCC", "DNA 2": "TGGTGGCTACGACGGGATT"}, "B8": {"name": "CCUAGAA (DNA:RNA)", "RNA": "B1 RNA with U25C, C31A", "DNA 1": "CAATCTGAATTCCGGTCTCCC", "DNA 2": "TGGTGGCTACGACGGGATT"}, "B9": {"name": "CAAUGAA (DNA:RNA)", "RNA": "B7 RNA with G25C, C27A, A29G, U30A", "DNA 1": "CAATCTGAATTCCGGTCTCCC", "DNA 2": "TGGTGGCTACGACGGGATT"}, "B10": {"name": "GGCAACC (DNA:RNA)", "RNA": "B7 RNA with A26G, U28A, U30C, A31C", "DNA 1": "CAATCTGAATTCCGGTCTCCC", "DNA 2": "TGGTGGCTACGACGGGATT"}, "B11": {"name": "AAGCAAU (DNA:RNA)", "RNA": "B7 RNA with G25A, C27G, U28C, U30A, A31U", "DNA 1": "CAATCTGAATTCCGGTCTCCC", "DNA 2": "TGGTGGCTACGACGGGATT"}, "B12": {"name": "UGCAAUU (DNA:RNA)", "RNA": "B7 RNA with G25U, A26G, U28A, A31U", "DNA 1": "CAATCTGAATTCCGGTCTCCC", "DNA 2": "TGGTGGCTACGACGGGATT"}, "B13": {"name": "AGUGUGG (DNA:RNA)", "RNA": "B1 RNA with U25A, C26G, A28G, G29U, A30G, C31G", "DNA 1": "CAATCTGAATTCCGGTCTCCC", "DNA 2": "TGGTGGCTACGACGGGATT"}, "B14": {"name": "CUCCAUG (DNA:RNA)", "RNA": "B7 RNA with G25C, A26U, U28C, A31G", "DNA 1": "CAATCTGAATTCCGGTCTCCC", "DNA 2": "TGGTGGCTACGACGGGATT"}, "B15": {"name": "CCACGAG (DNA:RNA)", "RNA": "B1 RNA with U25C, U27A, A28C, C31G", "DNA 1": "CAATCTGAATTCCGGTCTCCC", "DNA 2": "TGGTGGCTACGACGGGATT"}, "B16": {"name": "GGCGUAU (DNA:RNA)", "RNA": "B7 RNA with A26G, U28G, A29U, U30A, A31U", "DNA 1": "CAATCTGAATTCCGGTCTCCC", "DNA 2": "TGGTGGCTACGACGGGATT"}, "B17": {"name": "GUUCUGU (DNA:RNA)", "RNA": "B7 RNA with A26U, C27U, U28C, A29U, U30G, A31U", "DNA 1": "CAATCTGAATTCCGGTCTCCC", "DNA 2": "TGGTGGCTACGACGGGATT"}, "B18": {"name": "AUAACAC (DNA:RNA)", "RNA": "B1 RNA with U25A, C26U, U27A, G29C", "DNA 1": "CAATCTGAATTCCGGTCTCCC", "DNA 2": "TGGTGGCTACGACGGGATT"}, "B19": {"name": "UAUAACA (DNA:RNA)", "RNA": "B7 RNA with G25U, C27U, U28A, U30C", "DNA 1": "CAATCTGAATTCCGGTCTCCC", "DNA 2": "TGGTGGCTACGACGGGATT"}, "B20": {"name": "UCCGUCC (DNA:RNA)", "RNA": "B1 RNA with U27C, A28G, G29U, A30C", "DNA 1": "CAATCTGAATTCCGGTCTCCC", "DNA 2": "TGGTGGCTACGACGGGATT"}, "B21": {"name": "GUUGGUG (DNA:RNA)", "RNA": "B7 RNA with A26U, C27U, U28G, A29G, A31G", "DNA 1": "CAATCTGAATTCCGGTCTCCC", "DNA 2": "TGGTGGCTACGACGGGATT"}, "B22": {"name": "CUCAUAG (DNA:RNA)", "RNA": "B1 RNA with U25C, C26U, U27C, G29U, C31G", "DNA 1": "CAATCTGAATTCCGGTCTCCC", "DNA 2": "TGGTGGCTACGACGGGATT"}, "B23": {"name": "AGCCUUC (DNA:RNA)", "RNA": "B7 RNA with G25A, A26G, U28C, A29U, A31C", "DNA 1": "CAATCTGAATTCCGGTCTCCC", "DNA 2": "TGGTGGCTACGACGGGATT"}, "B24": {"name": "ACGCACA (DNA:RNA)", "RNA": "B7 RNA with G25A, A26C, C27G, U28C, U30C", "DNA 1": "CAATCTGAATTCCGGTCTCCC", "DNA 2": "TGGTGGCTACGACGGGATT"}, "B25": {"name": "UCAUUCG (DNA:RNA)", "RNA": "B1 RNA with U27A, A28U, G29U, A30C, C31G", "DNA 1": "CAATCTGAATTCCGGTCTCCC", "DNA 2": "TGGTGGCTACGACGGGATT"}, "B26": {"name": "CAUAAUU (DNA:RNA)", "RNA": "B7 RNA with G25C, C27U, U28A, A31U", "DNA 1": "CAATCTGAATTCCGGTCTCCC", "DNA 2": "TGGTGGCTACGACGGGATT"}, "B27": {"name": "GGGAAGA (DNA:RNA)", "RNA": "B7 RNA with A26G, C27G, U28A, U30G", "DNA 1": "CAATCTGAATTCCGGTCTCCC", "DNA 2": "TGGTGGCTACGACGGGATT"}, "B28": {"name": "UCCGCUA (DNA:RNA)", "RNA": "B7 RNA with G25U, A26C, U28G, A29C", "DNA 1": "CAATCTGAATTCCGGTCTCCC", "DNA 2": "TGGTGGCTACGACGGGATT"}, "B29": {"name": "CUUGGCU (DNA:RNA)", "RNA": "B1 RNA with U25C, C26U, A28G, A30C, C31U", "DNA 1": "CAATCTGAATTCCGGTCTCCC", "DNA 2": "TGGTGGCTACGACGGGATT"}, "B30": {"name": "UCGGGUA (DNA:RNA)", "RNA": "B1 RNA with U27G, A28G, A30U, C31A", "DNA 1": "CAATCTGAATTCCGGTCTCCC", "DNA 2": "TGGTGGCTACGACGGGATT"}, "B31": {"name": "CACCGUA (DNA:RNA)", "RNA": "B7 RNA with G25C, U28C, A29G", "DNA 1": "CAATCTGAATTCCGGTCTCCC", "DNA 2": "TGGTGGCTACGACGGGATT"}}, "note": "Positions count from the first letter of the chain named. Some of the results follow.", "data": [{"molecular_target": "T1, RBFOX1 RRM RbFoxmut (Fox-RRM*) (Homo sapiens, UniProt Q9NWB1 109-208, R118D;E147R;N151S;E152T)", "T1 sequence": "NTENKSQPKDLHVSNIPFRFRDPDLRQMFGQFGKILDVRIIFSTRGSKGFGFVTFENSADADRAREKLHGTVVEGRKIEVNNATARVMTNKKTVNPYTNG", "test": "EMSA; HiTS-Eq, 1 nM pool, 10 min; buffer printed only for the single-RNA assays: 10 mM Tris pH 7.5, 150 mM NaCl, 3.4 mM EDTA, 0.001% NP-40, 30 C", "conditions": "tags: His6 N-terminal (pET28a); label: 5' 32P", "procedure,_shortened": "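These values rest on relative association constants, computed from read-count changes of each RNA species versus the control reaction and normalised to the cognate motif. Reads came from free RNA recovered by 8% native PAGE after purified RbFox RRM (wild type or mutant) at increasing concentrations was equilibrated for 10 min in 50 µL with 1 nM of a 5′-radiolabelled pool with 7 randomized nucleotides and DNA-annealed flanks.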", "values": [{"binder": "B1", "binding signal": "0.0925 KA relative to UGCAUGU"}, {"binder": "B2", "binding signal": "0.126 KA relative to UGCAUGU"}, {"binder": "B3", "binding signal": "0.0911 KA relative to UGCAUGU"}, {"binder": "B4", "binding signal": "0.146 KA relative to UGCAUGU"}, {"binder": "B5", "binding signal": "0.209 KA relative to UGCAUGU"}, {"binder": "B6", "binding signal": "0.0999 KA relative to UGCAUGU"}, {"binder": "B7", "binding signal": "0.133 KA relative to UGCAUGU"}, {"binder": "B8", "binding signal": "0.0763 KA relative to UGCAUGU"}, {"binder": "B9", "binding signal": "0.102 KA relative to UGCAUGU"}, {"binder": "B10", "binding signal": "0.0655 KA relative to UGCAUGU"}, {"binder": "B11", "binding signal": "0.0605 KA relative to UGCAUGU"}, {"binder": "B12", "binding signal": "0.0703 KA relative to UGCAUGU"}, {"binder": "B13", "binding signal": "0.13 KA relative to UGCAUGU"}, {"binder": "B14", "binding signal": "0.146 KA relative to UGCAUGU"}, {"binder": "B15", "binding signal": "0.121 KA relative to UGCAUGU"}, {"binder": "B16", "binding signal": "0.101 KA relative to UGCAUGU"}, {"binder": "B17", "binding signal": "0.15 KA relative to UGCAUGU"}, {"binder": "B18", "binding signal": "0.0733 KA relative to UGCAUGU"}, {"binder": "B19", "binding signal": "0.0534 KA relative to UGCAUGU"}, {"binder": "B20", "binding signal": "0.066 KA relative to UGCAUGU"}, {"binder": "B21", "binding signal": "0.156 KA relative to UGCAUGU"}, {"binder": "B22", "binding signal": "0.148 KA relative to UGCAUGU"}, {"binder": "B23", "binding signal": "0.127 KA relative to UGCAUGU"}, {"binder": "B24", "binding signal": "0.105 KA relative to UGCAUGU"}, {"binder": "B25", "binding signal": "0.0978 KA relative to UGCAUGU"}, {"binder": "B26", "binding signal": "0.0899 KA relative to UGCAUGU"}, {"binder": "B27", "binding signal": "0.0814 KA relative to UGCAUGU"}, {"binder": "B28", "binding signal": "0.0757 KA relative to UGCAUGU"}, {"binder": "B29", "binding signal": "0.102 KA relative to UGCAUGU"}, {"binder": "B30", "binding signal": "0.139 KA relative to UGCAUGU"}, {"binder": "B31", "binding signal": "0.103 KA relative to UGCAUGU"}]}]}
